Data reported in article PMC4336329 (PLoS ONE, 2015).
In all, about 310,000 compounds went through this assay and about 2,200 (0.71%) showed an effect of 50% or more. Effects have a minus sign here. The list shows a part of the results.

These compounds were tested against human ether-à-go-go-related gene (hERG) potassium channel (human, UniProt Q12809) (assay: primary screen, population patch clamp on CHO cells stably expressing hERG).
human ether-à-go-go-related gene (hERG) potassium channel, sequence (Q12809 whole entry, looked up): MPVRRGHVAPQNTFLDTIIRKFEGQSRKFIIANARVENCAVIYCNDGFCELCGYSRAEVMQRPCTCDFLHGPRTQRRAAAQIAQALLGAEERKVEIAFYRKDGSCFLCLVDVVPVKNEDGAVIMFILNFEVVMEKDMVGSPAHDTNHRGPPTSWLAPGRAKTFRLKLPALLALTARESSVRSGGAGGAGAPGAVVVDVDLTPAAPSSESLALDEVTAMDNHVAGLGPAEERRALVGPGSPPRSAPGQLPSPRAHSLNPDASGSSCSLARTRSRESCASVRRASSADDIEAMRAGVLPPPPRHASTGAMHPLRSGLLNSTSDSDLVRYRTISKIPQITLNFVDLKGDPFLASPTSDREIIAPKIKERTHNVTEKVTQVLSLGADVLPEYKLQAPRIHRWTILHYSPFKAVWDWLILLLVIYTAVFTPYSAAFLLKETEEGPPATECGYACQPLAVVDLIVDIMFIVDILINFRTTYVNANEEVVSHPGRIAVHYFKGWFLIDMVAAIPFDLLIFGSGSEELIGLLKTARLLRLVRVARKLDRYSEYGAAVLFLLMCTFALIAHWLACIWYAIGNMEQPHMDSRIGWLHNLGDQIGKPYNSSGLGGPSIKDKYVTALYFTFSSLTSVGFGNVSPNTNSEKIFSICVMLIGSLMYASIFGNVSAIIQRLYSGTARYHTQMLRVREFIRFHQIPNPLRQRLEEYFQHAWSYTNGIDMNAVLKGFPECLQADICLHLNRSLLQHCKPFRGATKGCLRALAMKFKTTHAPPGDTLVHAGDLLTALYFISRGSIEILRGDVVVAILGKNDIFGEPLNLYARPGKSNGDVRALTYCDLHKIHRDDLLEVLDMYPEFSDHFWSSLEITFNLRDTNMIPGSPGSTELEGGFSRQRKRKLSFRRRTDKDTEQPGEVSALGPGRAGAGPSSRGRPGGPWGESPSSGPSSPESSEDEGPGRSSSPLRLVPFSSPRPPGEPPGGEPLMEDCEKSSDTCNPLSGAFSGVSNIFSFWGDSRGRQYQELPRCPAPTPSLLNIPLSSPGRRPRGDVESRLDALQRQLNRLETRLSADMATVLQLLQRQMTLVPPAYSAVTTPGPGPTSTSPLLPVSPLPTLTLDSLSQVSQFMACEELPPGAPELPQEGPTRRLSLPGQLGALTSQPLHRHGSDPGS

In order of falling “hERG current change (%, negative = inhibition) at 1uM” value:
1. CC[C@H](C)C1NC(=O)[C@H](CC(=O)O)NC(=O)c2cc([N+](=O)[O-])cc(I)c2NCCC(C(N)=O)NC1=O (stereo partly shown)  26.2%
2. N#CCSc1nccc(/C=C/c2ccccc2)n1  21.8%
3. O=C(Cc1ccc(Br)cc1)NCc1ccccc1  20.8%
4. O=C(O)COC(=O)Cc1ccccc1Nc1c(Cl)cccc1Cl  17.3%
5. CCCOc1ccc(/C(O)=C2/C(=O)C(=O)N(CCN(C)C)C2c2ccncc2)cc1 (stereo not shown)  16.9%
6. COc1ccc(CNC(=O)C(c2ccc(C)cc2)N(Cc2cccs2)C(=O)c2ccc3c(c2)OCCO3)cc1 (stereo not shown)  16.3%
7. CCS(=O)(=O)c1ccc2c(c1)N(S(C)(=O)=O)CC(C(=O)NC1CC1)O2 (stereo not shown)  16%
8. CC(=O)c1cccc(NC(=O)Cn2cnc(S(=O)(=O)N3CCCC3)c2)c1  15.8%
9. CN1C(=O)/C(=C/c2ccc3c(c2)OCO3)N=C1c1ccccc1  15.7%
10. Cc1cccc2[nH]c(SCC(=O)O)nc12  15%
11. Cc1ccc(OCCCN2CCOCC2)cc1  14.8%
12. CCNCC(O)COCC(O)CNCC (stereo not shown)  14.7%
13. O=C(COC(=O)CCCSc1nc2ccccc2[nH]1)Nc1ccc(Oc2ccccc2)cc1  14.2%
14. CCCCCc1nc2ccccc2c(=O)n1-c1ccccc1[N+](=O)[O-]  14.1%
15. Cc1ccc(C(CC(=O)O)NC(=O)CN2C(=O)c3ccccc3C2=O)cc1 (stereo not shown)  14%
16. Cc1cc(NS(=O)(=O)c2ccc(NC(=O)c3cnc4sccn4c3=O)cc2)nc(C)n1  13.9%
17. CN1CCN(Cc2ccc(Br)s2)CC1  13.8%
18. CCCCOc1cccc(C2/C(=C(/O)c3ccc4c(c3)CC(C)O4)C(=O)C(=O)N2CCN2CCOCC2)c1 (stereo not shown)  13.8%
19. CN(C)CCCN1C(=O)C(=O)/C(=C(/O)c2ccncc2)C1c1cccc(Br)c1 (stereo not shown)  13.6%
20. CCc1noc(C)c1C(=O)OCC(=O)NCc1ccccc1  13.4%
21. COc1cc(-c2nc3ccccn3c2N)ccc1O  13.3%
22. O=C(Cc1nc2ccccc2[nH]1)NCc1ccco1  13.2%
23. CCCN(C(=O)Cn1nc(C)c([N+](=O)[O-])c1C)c1c(N)n(Cc2ccccc2)c(=O)[nH]c1=O  13.1%
24. O=C(Cc1ccccn1)c1ccc(Cl)cc1  12.9%
25. OC(CN1CCOCC1)(c1ccccc1)c1ccccn1 (stereo not shown)  12.7%
26. CCC1CCCCN1CC(=O)Nc1ccc2c(c1)OCCO2 (stereo not shown)  12.4%
27. c1ccc(CN2CCN(c3nc(-c4ccccc4)nc4ccccc34)CC2)cc1  12.2%
28. COc1cccc(C(C(=O)NCc2ccco2)N(Cc2ccco2)C(=O)Cn2nnc3ccccc32)c1 (stereo not shown)  11.6%
29. O=C(NCC(=O)N1CCCCCCC1)c1ccco1  11.6%
30. Cc1cc(-n2c(C)cc(C(=O)COC(=O)CN=C3NS(=O)(=O)c4ccccc43)c2C)no1  11.6%
31. O=C(/C=C/c1cccc(Cl)c1)NCc1ccccc1  11.5%
32. COC(=O)CCCC(=O)N1CCC(n2nccc2NC(=O)CCOc2ccccc2)CC1  11.3%
33. Cc1ccc(C2(C)NC(=O)N(CC(=O)NC(C)c3ccccc3)C2=O)cc1 (stereo not shown)  11.3%
34. CCOC(=O)c1cnn(-c2nc(OCC)cc(OCC)n2)c1C  11.1%
35. CCOc1cc(NS(=O)(=O)c2ccc(OC)cc2)c(OCC)cc1NC(C)=O  11%
36. CCN(CC)CCNCC(=O)N1c2ccccc2CCc2ccc(NC(=O)OC)cc21.Cl  10.7%
37. N#CC1=C2N=C(N)c3ccccc3N2C2=C(C(=O)CCC2)C1c1cccc(Cl)c1 (stereo not shown)  10.6%
38. Cc1cccc(Sc2nc(-c3ccccc3)ncc2C(=O)O)c1  10.3%
39. C/C(=N\N=C(/N)SC1CC(=O)N(c2ccccc2)C1=O)c1cccs1 (stereo not shown)  9.77%
40. CCC(C)C(NC(=O)c1ccccc1NC(=O)c1ccco1)C(=O)NC1CCCCC1 (stereo not shown)  9.74%
41. Clc1ccccc1C1NCc2ccccc2-n2cccc21 (stereo not shown)  9.74%
42. Cc1ccc2c(c1)C(c1ccc(F)cc1)N(C(=O)c1ccccc1Br)CC(=O)N2 (stereo not shown)  9.64%
43. COCCOC(=O)/C(=C/c1ccc(OC(=O)c2ccccc2)cc1)C(C)=O  9.15%
44. CC(=O)c1c(C)[nH]c(C(=O)OC2CCOC2=O)c1C (stereo not shown)  9.14%
45. Cc1cc(=O)[nH]c(N/N=C/c2ccc3c(c2)OCCO3)n1  8.77%
46. CN1CCCC(OC(=O)COc2ccccc2)C1.Cl (stereo not shown)  8.65%
47. O=C(CN1C(=O)CSc2ccccc21)N/N=C/c1ccco1  8.45%
48. O=C(Nc1nccs1)C1CCN(S(=O)(=O)c2ccc(Cl)c(C(F)(F)F)c2)CC1  8.21%
49. O=C(CCNc1ccc(Cl)cc1)c1cccs1  8.08%
50. Cc1cc(C)cc(OCC(=O)N2CCc3ccccc3C2)c1  7.93%
51. COc1ccc(C(=O)COC(=O)c2cc3ccccc3oc2=O)c(OC)c1  7.12%
52. O=S(=O)(c1ccc(NC(=S)Nc2ccccc2)cc1)N1CCOCC1  7.12%
53. CN(C(=O)COC(=O)c1cc(-c2ccc(Cl)s2)nc2ccccc12)C1CCS(=O)(=O)C1 (stereo not shown)  6.76%
54. O=C(O)/C=C/c1coc2ccc(F)cc2c1=O  6.71%
55. OC1CC(c2ccco2)NC2(CCCCC2)C1 (stereo not shown)  6.4%
56. Cc1nnc(C)n1/N=C/c1cc2ccccc2nc1Cl  5.71%
57. CCN1CCCC1CNC(=O)c1cc2ccc(OC)cc2[nH]1 (stereo not shown)  5.34%
58. COC(=O)CC1=C(C(=O)OC)C(c2ccc3c(c2)OCO3)C(C#N)=C(N)O1 (stereo not shown)  4.77%
59. COc1ccc(C(C)=O)cc1COC(=O)c1cc(=O)c2ccccc2o1  4.54%
60. Cc1cc(C)cc(N(CC(=O)Nc2cc(C)ccc2C)S(=O)(=O)c2c(C)[nH]c(=O)[nH]c2=O)c1  4.41%
61. O=S(=O)(c1ccc2c(c1)CCCN2)N1CCCC1  4.39%
62. CCOC(=O)/C=C/C(=O)Nc1ccc(S(=O)(=O)N2CCCCCC2)cc1  4.35%
63. Cc1cccc(OCCCC(=O)Nc2ccc(Cl)c(S(=O)(=O)N3CCOCC3)c2)c1  4.32%
64. O=C(NCc1cccs1)C(=O)c1c[nH]c2ccccc12  4.18%
65. Cc1ccc(NC(=O)CSc2nnc(Cc3cccn3C)n2-c2ccc(F)cc2)c(C)c1  4.05%
66. N#C/C(=C\c1c(N2CCC(C(N)=O)CC2)nc2ccccn2c1=O)S(=O)(=O)c1ccc(Cl)cc1  3.91%
67. O=C(COC(=O)COc1ccc(Cl)cc1)NCCNC(=O)COC(=O)COc1ccc(Cl)cc1  3.11%
68. C=CCC(CC=C)(C(=O)O)c1ccccc1  2.95%
69. C/C(Cn1nnc([N+](=O)[O-])n1)=N\NC(=O)c1ccc(C)cc1  2.75%
70. COc1ccc(NC(=O)c2c(N)no[n+]2[O-])cc1  1.89%
71. CN(Cc1ccccc1)C(=O)CSc1cc(=O)n(C)c2ccccc12  1.88%
72. CN(CC(=O)Nc1cccc2ccccc12)C(=O)/C=C/c1cccs1  -0.449%
73. COc1ccc2[nH]c(=O)c(CN(C(=O)c3ccncc3)C(C)C)cc2c1  -1.97%
74. COc1cc2c(cc1OC)CN(c1ccc([N+](=O)[O-])c(C(F)(F)F)c1)CC2  -5.09%
75. Cc1cccc(OCc2nnc(SCC(=O)N3CCCC3)n2C)c1  -5.15%
76. OC(COc1ccc(OCc2ccccc2)cc1)CN1CCCCC1 (stereo not shown)  -5.55%
77. COc1cc(CCC(=O)OCC(=O)Nc2ncc(Cl)cc2Cl)cc(OC)c1OC  -5.63%
78. Cc1cccc2c1nc(-c1ccccc1)n1cnnc21  -6.84%
79. CCCCCn1c(SCCOCC)nc2c1c(=O)[nH]c(=O)n2C  -7.34%
80. CCOc1ccc(NC(=O)C2CCCN(c3c(CC)c(C)nc4ncnn34)C2)cc1 (stereo not shown)  -8.48%
81. O=C(c1ccccc1S(=O)(=O)NCC(O)COc1ccc([N+](=O)[O-])cc1)N1CCCCC1 (stereo not shown)  -12.5%
82. O=C(CCc1c[nH]c2ccccc12)OCC(=O)N1CCN(S(=O)(=O)c2ccccc2)CC1  -14.2%
83. CN1CCN(c2ccc(-c3cccc(NC(=O)COc4ccccc4)c3)nn2)CC1  -14.2%
84. COc1ccccc1CNC(=O)C/C(C)=N/NC(=O)COc1ccc(C)cc1Br  -14.4%
85. CSc1cccc(CN2CCN(Cc3ccc(F)c(F)c3)C(CCO)C2)c1 (stereo not shown)  -14.6%
86. COC(=O)c1ccccc1NC(=O)CC(NCc1ccccc1)C(=O)O (stereo not shown)  -20%
87. O=C(Cn1ccccc1=O)Nc1ccc(Cl)c(S(=O)(=O)N2CCCCC2)c1  -21.2%
88. CCN(CC)CCNC(=O)C(Oc1ccccc1)Oc1ccccc1  -46.9%
